# Laboratory results reported in article PMC4336329 (PLoS ONE, 2015).
# In all, about 310,000 compounds went through this assay and about 2,200 (0.71%) showed an effect of 50% or more. Effects have a minus sign here. The list shows a part of the results.
# Molecular target: human ether-à-go-go-related gene (hERG) potassium channel (human, UniProt Q12809)
# Experiment: primary screen, population patch clamp on CHO cells stably expressing hERG
# Sequence of human ether-à-go-go-related gene (hERG) potassium channel (Q12809 whole entry, looked up): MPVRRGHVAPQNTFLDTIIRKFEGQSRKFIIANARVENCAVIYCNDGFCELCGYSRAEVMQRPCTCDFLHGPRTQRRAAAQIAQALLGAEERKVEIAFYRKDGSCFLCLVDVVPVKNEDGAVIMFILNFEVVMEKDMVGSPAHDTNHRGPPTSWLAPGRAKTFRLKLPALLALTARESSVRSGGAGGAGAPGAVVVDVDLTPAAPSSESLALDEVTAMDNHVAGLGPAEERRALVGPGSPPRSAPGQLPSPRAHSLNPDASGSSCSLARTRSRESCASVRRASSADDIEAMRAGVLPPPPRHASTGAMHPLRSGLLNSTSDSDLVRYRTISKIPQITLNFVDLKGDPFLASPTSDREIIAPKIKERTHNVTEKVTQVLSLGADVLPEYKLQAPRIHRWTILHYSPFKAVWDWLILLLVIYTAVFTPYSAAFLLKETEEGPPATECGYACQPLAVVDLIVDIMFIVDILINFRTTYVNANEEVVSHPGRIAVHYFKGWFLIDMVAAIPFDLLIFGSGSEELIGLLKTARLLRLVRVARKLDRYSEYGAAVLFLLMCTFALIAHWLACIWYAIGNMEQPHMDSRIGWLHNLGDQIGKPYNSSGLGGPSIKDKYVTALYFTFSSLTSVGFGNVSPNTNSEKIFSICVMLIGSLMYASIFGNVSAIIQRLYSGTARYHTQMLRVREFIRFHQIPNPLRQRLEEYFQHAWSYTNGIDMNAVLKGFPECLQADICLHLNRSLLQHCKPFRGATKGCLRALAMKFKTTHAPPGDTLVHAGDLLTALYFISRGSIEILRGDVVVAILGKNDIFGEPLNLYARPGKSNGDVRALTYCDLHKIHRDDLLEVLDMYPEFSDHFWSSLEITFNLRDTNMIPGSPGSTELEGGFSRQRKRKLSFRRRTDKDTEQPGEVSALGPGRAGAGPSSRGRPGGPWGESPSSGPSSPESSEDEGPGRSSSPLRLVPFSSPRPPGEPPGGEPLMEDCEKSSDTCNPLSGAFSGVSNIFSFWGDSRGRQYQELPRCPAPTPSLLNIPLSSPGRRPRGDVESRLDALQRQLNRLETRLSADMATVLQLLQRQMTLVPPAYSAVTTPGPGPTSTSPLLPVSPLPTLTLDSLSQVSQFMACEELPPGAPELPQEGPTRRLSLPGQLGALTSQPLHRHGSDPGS
row,SMILES,"hERG current change (%, negative = inhibition) at 1uM"
1,Cc1ccc(CNC(=O)CCS(=O)(=O)c2cc(Br)cc3c2N(C(=O)C2CC2)CC3)o1,8.69%
2,Cn1c(SCC(N)=O)nnc1C1CCN(C(=O)NCc2ccccc2)CC1,14.4%
3,Cc1ccc(C)c(OCC(=O)NCCN(C)C)c1.Cl,19.1%
4,CCOC(=O)C1=C(c2ccccc2)NC(=O)NC1c1cc(OC)c(OC)cc1OC (stereo not drawn),13.1%
5,CC(C)c1ccc(C2N3CCCN23)cc1 (stereo not drawn),9.3%
6,Cc1cc(C(=O)Nc2ccc3c(c2)OCO3)cs1,-1.09%
7,Cc1cc(Sc2nnc(N)s2)c2ccccc2n1,8.39%
8,O=C(NC1CCCCCC1)C1CCCN(c2ncccn2)C1 (stereo not drawn),13.1%
9,Cc1csc2nc(CNS(=O)(=O)c3ccc(-c4ccccc4)cc3)cn12,14.2%
10,COc1cc(/C=C(\C#N)c2nc3ccccc3s2)ccc1OCC(=O)Nc1ccccc1,9.04%
11,COc1ccc2c(/C=N/NS(=O)(=O)c3ccc(C)cc3)c[nH]c2c1,5.82%
12,CC1(C)CC(=O)c2cnc(NC(=O)CSc3nc4ccccc4o3)nc2C1,16.4%
13,CCOC(=O)c1cc(C#N)c(SCC(=O)c2cc(C#N)c(SC)nc2C)nc1C,4.66%
14,CN(C(=O)C(C)(C)C)C1c2c(ccc3ccccc23)OCC1CO (stereo not drawn),8.62%
15,CCC(C(=O)Nc1cccnc1Cl)c1ccccc1 (stereo not drawn),14.2%
16,Cc1ccc2nsnc2c1NC(=O)CCc1ccccc1,-4.24%
17,O=C1C=C(O)c2cccc(O)c2C1=O,19.4%
18,COc1cccc(CN(CC(=O)NCC2CCCO2)C(=O)CNS(=O)(=O)c2ccccc2)c1 (stereo not drawn),4.02%
19,Cl.O=C(NCCN1CCCC1)c1cccc(Cl)c1,-13.1%
20,Cc1nn2c(COc3ccc(NC(=O)c4ccccc4Cl)cc3)nnc2c2ccccc12,4.43%
21,Cc1ccc(NC(=O)c2cc(Cl)ccc2[N+](=O)[O-])cc1C,9.54%
22,CS(=O)(=O)c1ccc(S(=O)CC(=O)Oc2ccc(Cl)cc2)c([N+](=O)[O-])c1 (stereo not drawn),13.1%
23,COC(=O)c1cc(OC)c(OC)cc1NC(=O)CSc1nnc(-c2cccnc2)n1C,-5.26%

row,SMILES,"hERG current change (%, negative = inhibition) at 1uM"
1,Cc1ccc(Cn2nnc3c(=O)[nH]c(C4CCN(S(=O)(=O)c5ccc(S(=O)(=O)NC6CC6)cc5)CC4)nc32)cc1,8.19%
2,O=C(/C=C/c1ccc2c(c1)OCO2)c1c(O)n(CCC2=CCCCC2)c(=O)[nH]c1=O,11%
3,COc1ccc(CCNC(=O)c2ccc3c(c2)NC(=O)CS3)cc1OC,8.02%
4,CCCC[C@@H]1CNC(=O)C(=O)N1CCc1cc(C(F)(F)F)cc(C(F)(F)F)c1,-3.32%
5,O=C(CCNC(=O)Cn1cnc2ccccc2c1=O)NCC1COc2ccccc2O1 (stereo not drawn),6.38%
6,O=c1[nH]c(CSc2nc3ccccc3[nH]2)nc2c1cnn2-c1ccccc1,-1.63%
7,COc1ccccc1/C=C/C=N/NC(=O)CC1C(=O)NN=C1C (stereo not drawn),12.8%
8,CCc1ccccc1N(CC(=O)Nc1cccnc1)S(=O)(=O)c1ccccc1,10%
9,Cc1ccc(C)c(N2CCN(C(c3ccncc3)c3nnnn3Cc3ccccc3)CC2)c1.Cl (stereo not drawn),5.53%
10,CC(=O)N1CCN(C(=O)c2cc(=O)c3ccccc3o2)CC1,22%
11,O=C(Cn1ccccc1=O)c1cccs1,10.2%
12,O=C(Cc1ccc(F)cc1)Nc1ccccc1N1CCCC1,11.3%
13,Cc1ccc(SCCNC(=S)Nc2cc(C)ccc2C)cc1,8.45%
14,O=C(Nc1cccc(Cl)c1)Nc1nc(-c2ccc(Cl)cc2)cs1,11.3%
15,Cc1cc2oc(=O)cc(CN3CCN(C/C=C/c4ccccc4)CC3)c2cc1O,-67.8%
16,O=C(OCCc1ccccc1)c1cc(O)c(O)c(O)c1,21.2%
17,O=C1NC(=S)N/C1=C/c1cccc2ccccc12,7.77%
18,O=C(NCc1cccs1)c1csc2ccccc12,13.4%
19,O=C(COC(=O)C1CCCCC1)Nc1ccc(N2CCCCC2)cc1,7.55%
20,Cc1ccc(S(=O)(=O)NCc2ccc(C(=O)NCCCN3CCC(Cc4ccccc4)CC3)cc2)cc1,-52.4%
21,COc1ccc(N2CCN(CCNC(=O)Nc3ccc([N+](=O)[O-])cc3OC)CC2)cc1,12%
22,CCCCOc1ccc(C(=O)NCC(=O)N2CC=C(c3ccccc3)CC2)cc1,10.7%
